Laboratory results as given in publication PMC6919601, “Identification of Plasmodium dipeptidyl aminopeptidase allosteric inhibitors by high throughput screening” (PLoS ONE, 2019).
The campaign covered roughly 110,000 compounds. About 230 (0.21%) showed an effect of 50% or more. This is one part of the list.

The molecules below were run against DPAP1 (Plasmodium falciparum, UniProt Q8IIJ9) (assay: primary screen, percent inhibition; read by cleavage of a fluorogenic dipeptide substrate; higher = more effect of the substance).
DPAP1, sequence (Q8IIJ9 whole entry, looked up): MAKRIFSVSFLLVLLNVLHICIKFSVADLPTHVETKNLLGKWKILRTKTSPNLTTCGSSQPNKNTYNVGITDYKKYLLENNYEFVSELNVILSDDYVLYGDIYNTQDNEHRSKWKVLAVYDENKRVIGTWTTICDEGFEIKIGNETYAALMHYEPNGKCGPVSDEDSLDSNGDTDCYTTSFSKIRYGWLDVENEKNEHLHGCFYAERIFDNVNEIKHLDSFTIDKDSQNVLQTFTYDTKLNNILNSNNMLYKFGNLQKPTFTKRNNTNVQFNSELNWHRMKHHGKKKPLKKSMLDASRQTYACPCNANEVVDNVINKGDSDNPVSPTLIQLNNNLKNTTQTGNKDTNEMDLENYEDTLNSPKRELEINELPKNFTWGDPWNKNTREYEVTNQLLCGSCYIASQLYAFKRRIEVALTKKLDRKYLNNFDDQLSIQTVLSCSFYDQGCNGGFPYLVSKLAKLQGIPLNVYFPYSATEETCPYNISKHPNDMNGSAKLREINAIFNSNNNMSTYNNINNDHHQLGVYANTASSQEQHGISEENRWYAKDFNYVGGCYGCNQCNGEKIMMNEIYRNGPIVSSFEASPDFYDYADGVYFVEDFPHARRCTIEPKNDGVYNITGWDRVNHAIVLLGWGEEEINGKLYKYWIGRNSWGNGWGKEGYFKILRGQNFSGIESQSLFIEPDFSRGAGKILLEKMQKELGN
Design: species or system P. falciparum D10 trophozoite lysates; single well
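Also: 30 min substrate incubation versus DMSO and 10 µM JCP410 controls.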

Row | Compound | % Inhibition @ 10 uM
1 | Cc1ccc2nc3c(cc(C(=O)NCCN4CCOCC4)c(=N)n3CC3CCCO3)c(=O)n2c1 (stereo not shown) | 0.279%
2 | Cc1ccc(SCCC(=O)N2CCC(C(N)=O)CC2)cc1 | 0.709%
3 | O=C(NC1CCCCC1NC(=O)C1CC12CCC2)C1CC12CCC2 (stereo not shown) | 12.8%
4 | COCCN(CCOC)S(=O)(=O)c1ccc(C(=O)Nc2sc3c(c2C#N)CCC3)cc1 | 2.7%
5 | COc1ccc(CCNC(=O)CSc2nc3c(cc2C#N)N2CCC3CC2)cc1OC | -3.07%
6 | CC(C)Cn1c(=O)c2ccccc2n2c(CCC(=O)NCCc3c[nH]c4ccccc34)nnc12 | 5.68%
7 | O=C(COc1ccc(Br)cc1Br)Nc1ccccc1C(F)(F)F | -4.08%
8 | Cc1nn(C(C)C(=O)N2CCC(Cc3ccccc3)CC2)c(=O)c2c1sc1ccccc12 (stereo not shown) | -5.78%
9 | Cc1ccc(-c2cn3c(n2)sc2cc(C(=O)N4CCOCC4)ccc23)cc1 | 17%
10 | CN(CC(=O)N1CCC(Cc2ccccc2)CC1)c1nnc(N2CCCC2=O)s1 | -2.94%
11 | CCS(=O)(=O)N1CCC(C(=O)NCCN2CCCCC2C)CC1 (stereo not shown) | 0.514%
12 | CC(C)C[C@H](NC(=O)N1CCN(c2ccncc2)CC1)C(=O)NCC#N | -5.64%
13 | O=C(O)CCSCCc1ccncc1 | -6.29%
14 | COc1ccc(-c2nc3n(n2)C(c2ccccc2Cl)C(C(=O)Nc2cccnc2)=C(C)N3)cc1 (stereo not shown) | 6.7%
15 | COc1cccc(Cn2c(N3CCCCC3)nc3c2c(=O)n(C)c(=O)n3C)c1 | -5.14%
16 | CCCn1c(NCc2ccccn2)nc2ccccc21 | -5.34%
17 | Cc1nc2c(-c3ccccc3)c(C)nn2c(C)c1CC(=O)NCCC(C)C | 5.65%
18 | O=C(c1ccc2ccccc2n1)N1CCc2ccccc2C1 | 0.627%
19 | CCCCNS(=O)(=O)c1cc(-c2nn(C)c(=O)c3ccccc23)ccc1C | -2.14%
20 | CCCc1cc(O)n2ncc(-c3ccc(Cl)cc3)c2n1 | -5.28%
21 | COCCO/C(O)=C1\C(C)=NC(=S)NC1c1cccs1 (stereo not shown) | 2.05%
22 | c1ccc2cc(OCCCCN3CCCC3)ccc2c1 | 1.35%
23 | Cc1ccccc1C(=O)NCCNC1=NS(=O)(=O)c2ccccc21 | -3.28%
24 | COCCOc1nc2ccccc2s1 | 5.56%
25 | COc1ccc(CNC(=O)c2sc3nc(-c4ccc(OC)cc4)ccc3c2N)cc1 | 0.727%

Row | Compound | % Inhibition @ 10 uM
26 | COc1ccc(CC(=O)N2CCN(c3cccc(Cl)c3)CC2)cc1 | 0.215%
27 | CCOc1ccc(CCNC(=O)c2cccc3c2C(=O)N(Cc2cccnc2)C3)cc1OCC | 1.23%
28 | NC(=O)c1oc2ccccc2c1N | 3.61%
29 | c1ccc(C2CCC(N3CCC(N4CCCCC4)CC3)CC2)cc1 (stereo not shown) | 4.68%
30 | CC(C)c1ccc(/C=C/C(=O)N2CCN(c3ccc([N+](=O)[O-])cc3)CC2)cc1 | 5.77%
31 | COc1ccc(C2=N/C(=C\C(Cl)=C\c3ccccc3)C(=O)O2)c(Cl)c1 | -1.29%
32 | CCOc1ccc(NC(=O)C2CC3CCC2C3)cc1 (stereo not shown) | -12.1%
33 | COC(=O)C1=C(C)N(C)C(=O)/C1=C\c1cccc(Cl)c1 | -5.28%
34 | C=CCc1cc(/C=C2\SC(=O)NC2=O)cc(OC)c1OC | 4.98%
35 | Cc1c(C)n(C(=O)CN2CCc3ccccc3C2)c2ccccc12 | 3.87%
36 | C=CCN1C(=O)S/C(=C/c2ccc(-c3ccc(C(=O)O)cc3)o2)C1=O | 8.07%
37 | COc1ccc(S(=O)Cc2ccc(C(=O)NC3CC3)o2)cc1 (stereo not shown) | 2.83%
38 | COc1ccc(OC)c(NC2=C(Cl)C(=O)N(c3ccccc3)C2=O)c1 | -8.56%
39 | CCOc1cc(C2C(C#N)=C(N)Oc3[nH]nc(C)c32)ccc1OCc1cccc(F)c1 (stereo not shown) | 1.82%
40 | O=C(C(Cc1ccccc1)N1C(=O)c2ccccc2C1=O)N1CCCCCC1 (stereo not shown) | -6.95%
41 | Oc1cc(NCc2ccccc2)nc(O)n1 | -1.19%
42 | C/N=C1\S/C(=C\c2ccc(-c3ccc(Cl)cc3C(=O)O)o2)C(=O)N1C | -3.67%
43 | CCn1c2c(c3cc(Br)ccc31)CCCC2O (stereo not shown) | -8.71%
44 | CCOC(=O)N1CCC(c2nc3ccccc3[nH]2)CC1 | -1.03%
45 | CC1CCC(N2CCCC(CO)C2)C1 (stereo not shown) | -2.03%
46 | COc1ccc(CCNC(=O)CN2C(=O)c3ccccc3S2(=O)=O)cc1 | 1.52%
47 | N#Cc1c(NC(=O)CCN2C(=O)C3C4C=CC(C4)C3C2=O)sc2c1CCCC2 (stereo not shown) | -2.45%
48 | CC(Oc1cccc(Cl)c1)C(=O)NCc1ccc2c(c1)OCO2 (stereo not shown) | -3.06%
49 | O=C(Nc1ccccc1)SCC(=O)c1ccc(O)cc1 | -2.62%
50 | COc1ccc2[nH]c(SCC(=O)Nc3ccc4c(c3)OCO4)nc2c1 | 0.674%

Row | Compound | % Inhibition @ 10 uM
51 | Cc1cccc(NC(=O)c2ccc(Cl)cc2)n1 | 7.73%
52 | O=C(O)CCCC(=O)Nc1cnn(Cc2ccccc2)c1 | -4.28%
53 | Cc1ccc(OCC(=O)Nc2ccc(O)cc2)cc1 | -0.95%
54 | COc1cccc(C(=O)N(Cc2ccc(C(C)C)cc2)C2CCS(=O)(=O)C2)c1 (stereo not shown) | 0.198%
55 | O=C(OCCN1CCCCC1)c1ccc(O)cc1O | -4.15%
56 | CC(C)c1ccc2c(N)c(C(=O)Nc3nc4ccccc4s3)sc2n1 | 1.31%
57 | Cc1ccccc1OCCCCn1ccnc1 | -7.99%
58 | Cc1cccc(C2C(C#N)=C(N)Oc3cc(C)oc(=O)c32)c1 (stereo not shown) | -3.13%
59 | c1ccc(OCCCN2CCCCC2)cc1 | 2.76%
60 | CCOC(=O)CC1(c2ccc(CC)cc2)C(=O)c2ccccc2C1=O | 3.48%
61 | N#CC1=C(SCC(=O)NCc2ccccc2)N=C2CCCC(O)=C2C1c1ccc2c(c1)OCO2 (stereo not shown) | 3.79%
62 | COc1ccccc1C1C2=C(O)CC(C)(C)CC2=Nc2ncnn21 (stereo not shown) | 1.73%
63 | COc1cccc(-c2nnc(NC(=O)/C=C/c3ccccc3)s2)c1 | 13.5%
64 | COc1ccc(Br)c(C(=O)Nc2c(O)oc3ccccc3c2=O)c1 | -0.148%
65 | COc1ccc(NC(=O)c2ccc(CNS(=O)(=O)c3cccc(OC)c3)cc2)cc1 | 0.161%
66 | COc1ccc(N(CC(=O)NCc2ccco2)S(=O)(=O)c2ccc(OC)c(OC)c2)cc1 | 3.48%
67 | CC1=Nc2ncnn2C(c2ccccc2Cl)/C1=C(/O)OCc1ccccc1 (stereo not shown) | -3.14%
68 | COc1ccc(C(=O)N2CCN(c3ccc(OCc4ccccc4)cc3)CC2)cc1 | -5.54%
69 | O=C(CN(C1CCCCC1)S(=O)(=O)c1ccc(Br)cc1)NCc1cccnc1 | -5.27%
70 | CCOC(=O)c1conc1-c1ccc([N+](=O)[O-])cc1 | -1.56%
71 | OC1CCN(Cc2ccc(Cl)cc2Cl)CC1 | -3.72%
72 | CC(C)C[C@H](NS(=O)(=O)c1ccc(-c2ccccc2Cl)cc1)C(=O)NCC#N | -2.02%
73 | CC1(C)C(=O)N(OCc2ccccc2)C(C)(C)C(=O)N1OCc1ccccc1 | 2.7%
74 | Cc1ccccc1C(=O)c1ccc(O)c(C)c1O | 2.3%
75 | N#CCNC(=O)[C@H](Cc1cc(Cl)c(O)c(Cl)c1)NC(=O)c1ccc(-c2ccccc2)cc1 | -4.72%

Row | Compound | % Inhibition @ 10 uM
76 | O=C1S/C(=C/c2ccc3c(c2)OCO3)C(=O)N1CNc1ccccc1F | -5.1%
77 | Cc1cc2ccccc2n1-c1ccc(C(=O)N2CCN(C)CC2)s1 | -2.83%
78 | COc1ccc(CCN2CC(C(=O)NCc3ccc(F)cc3)CC2=O)cc1OC (stereo not shown) | 1.62%
79 | CCO/C(O)=C1\C(C)=Nc2nc(-c3ccccc3OC)nn2C1c1ccc(Cl)cc1 (stereo not shown) | -0.125%
80 | Cc1[nH]c2ccccc2c1CCNS(=O)(=O)c1ccc(F)cc1 | -3.04%
81 | Cc1cc(C(=O)C(=O)Nc2nnc(-c3ccco3)s2)c(C)n1-c1ccc(Cl)cc1 | -1.06%
82 | O=C1CC(c2ccc(C(F)(F)F)cc2)C2=C(CC(c3ccccc3Cl)CC2=O)N1 (stereo not shown) | -4.81%
83 | CC(C)C[C@H](NC(=O)N1CCN(CCc2ccccc2)CC1)C(=O)NCC#N | -3.48%
84 | CCOC(=O)c1c(NC(=O)CN2CCCCC2)sc2c1CCCC2O (stereo not shown) | 4.33%
85 | COc1cc(OC)cc(C(=O)Nc2ccc3oc(-c4ccccc4F)nc3c2)c1 | 13.9%
86 | CCn1c2ccccc2c2nnc(NCCc3cc(OC)ccc3OC)nc21 | 0.813%
87 | O=C1c2ccccc2C(=O)N1c1ccc(Cl)cn1 | -2.32%
88 | COc1ccc(S(=O)(=O)c2cc(NC(=O)c3ccccc3)c(C)c(C)c2O)cc1 | -1.95%
89 | CCCSc1ncc(Cl)c(C(=O)Nc2sc(C(C)=O)c(C)c2C(=O)OC)n1 | -2.21%
90 | CCCNC(=O)c1cc2nc(-c3cccs3)cc(C(F)(F)F)n2n1 | -3.26%
91 | O=C(NCc1ccccc1Cl)C1CCC(CNS(=O)(=O)c2cccc3cccnc23)CC1 (stereo not shown) | 0.981%
92 | COc1ccc(CN2CCN(Cc3ccc(C(F)(F)F)cc3)CC2)cc1OC | -1.49%
93 | CCOC(=O)C1=C(Cn2cncn2)NC(=O)NC1c1ccc2c(c1)OCO2 (stereo not shown) | -0.0678%
94 | CCc1c(-c2nnc(S)n2CC)csc1C | 3.94%
95 | COc1ccccc1OCc1nc(C#N)c(N2CCOCC2)o1 | -4.62%
96 | NC(=O)c1ccc(NC(=O)CSCc2ccccc2Br)cc1 | -0.99%
97 | O=C(CN1C(=O)c2ccccc2C1=O)Nc1ccccc1Oc1ccccc1 | -1.02%
98 | CCNC(=O)c1cc2c(=O)n3cc(C)ccc3nc2n(C(C)CC)c1=N (stereo not shown) | -7.08%
99 | NC(=O)C1CCN(C(=O)c2ccc3nc(-c4ccccc4)c(-c4ccccc4)nc3c2)CC1 | 8.35%
100 | Clc1ccccc1CN1CCN(c2ccccn2)CC1 | 1.4%
